Measurements reported in the supplement of paper PMC11302662.
Each value is the number of isolates with that result; steps that no isolate showed are left empty. MIC by broth microdilution (Sensititre panel) of ESBL-producing clinical Enterobacterales isolates; higher = less susceptible. No active / inactive call. '<=' and '>=' mark the lowest and highest value of each drug's range; the source prints them as plain numbers.

How the values were obtained:
Assay in all cases: Isolates counted by MIC; Sensititre broth microdilution panel on ESBL-producing clinical isolates.
[1] = tested on: Klebsiella pneumoniae (122 isolates)
[2] = tested on: Escherichia coli (193 isolates)
[3] = tested on: Enterobacter cloacae (10 isolates)
[4] = tested on: Enterobacter hormaechei (113 isolates)

CCC(C)CCCC(=O)N[C@@H](CCN)C(=O)N[C@H](C(=O)N[C@@H](CCN)C(=O)N[C@H]1CCNC(=O)[C@H]([C@@H](C)O)NC(=O)[C@H](CCN)NC(=O)[C@H](CCN)NC(=O)[C@H](CC(C)C)NC(=O)[C@@H](CC(C)C)NC(=O)[C@H](CCN)NC1=O)[C@@H](C)O (some centres not stated) [colistin]
isolate count ([1]; MIC: 0.5 mg/L): 84 | isolate count ([1]; MIC: 1 mg/L): 36 | isolate count ([1]; MIC: 2 mg/L): 1 | isolate count ([1]; MIC: 4 mg/L): 1 | isolate count ([2]; MIC: 0.5 mg/L): 161 | isolate count ([2]; MIC: 1 mg/L): 3 | isolate count ([2]; MIC: 8 mg/L): 1 | isolate count ([2]; MIC: ≤0.25 mg/L): 28 | isolate count ([3]; MIC: 0.5 mg/L): 1 | isolate count ([3]; MIC: 1 mg/L): 1 | isolate count ([3]; MIC: 8 mg/L): 2 | isolate count ([3]; MIC: ≥16 mg/L): 6 | isolate count ([4]; MIC: 0.5 mg/L): 89 | isolate count ([4]; MIC: 1 mg/L): 20 | isolate count ([4]; MIC: ≤0.25 mg/L): 4

CO[C@@]1(NC(=O)C(C(=O)O)c2ccsc2)C(=O)N2[C@@H](C(=O)O)C(C)(C)S[C@@H]21 (some centres not stated) [temocillin]
isolate count ([1]; MIC: 8 mg/L): 50 | isolate count ([1]; MIC: 16 mg/L): 23 | isolate count ([1]; MIC: ≤4 mg/L): 43 | isolate count ([1]; MIC: ≥32 mg/L): 6 | isolate count ([2]; MIC: 8 mg/L): 87 | isolate count ([2]; MIC: 16 mg/L): 53 | isolate count ([2]; MIC: ≤4 mg/L): 41 | isolate count ([2]; MIC: ≥32 mg/L): 12 | isolate count ([3]; MIC: 8 mg/L): 5 | isolate count ([3]; MIC: 16 mg/L): 2 | isolate count ([3]; MIC: ≤4 mg/L): 2 | isolate count ([3]; MIC: ≥32 mg/L): 1 | isolate count ([4]; MIC: 8 mg/L): 50 | isolate count ([4]; MIC: 16 mg/L): 23 | isolate count ([4]; MIC: ≤4 mg/L): 31 | isolate count ([4]; MIC: ≥32 mg/L): 9

C[C@@H](O)[C@H]1C(=O)N2C(C(=O)O)=C(S[C@@H]3CN[C@H](C(=O)N(C)C)C3)[C@H](C)[C@H]12 [meropenem]
isolate count ([1]; MIC: 0.25 mg/L): 1 | isolate count ([1]; MIC: 2 mg/L): 1 | isolate count ([1]; MIC: ≤0.12 mg/L): 118 | isolate count ([1]; MIC: ≥16 mg/L): 2 | isolate count ([2]; MIC: 1 mg/L): 1 | isolate count ([2]; MIC: ≤0.12 mg/L): 192 | isolate count ([3]; MIC: ≤0.12 mg/L): 10 | isolate count ([4]; MIC: 0.25 mg/L): 2 | isolate count ([4]; MIC: 0.5 mg/L): 2 | isolate count ([4]; MIC: ≤0.12 mg/L): 109

NCC[C@H](O)C(=O)N[C@@H]1C[C@H](N)[C@@H](O[C@H]2O[C@H](CN)[C@@H](O)[C@H](O)[C@H]2O)[C@H](O)[C@H]1O[C@H]1O[C@H](CO)[C@@H](O)[C@H](N)[C@H]1O [amikacin]
isolate count ([1]; MIC: 2 mg/L): 20 | isolate count ([1]; MIC: 4 mg/L): 19 | isolate count ([1]; MIC: 8 mg/L): 5 | isolate count ([1]; MIC: ≤1 mg/L): 77 | isolate count ([1]; MIC: ≥32 mg/L): 1 | isolate count ([2]; MIC: 2 mg/L): 95 | isolate count ([2]; MIC: 4 mg/L): 19 | isolate count ([2]; MIC: 8 mg/L): 10 | isolate count ([2]; MIC: 16 mg/L): 11 | isolate count ([2]; MIC: ≤1 mg/L): 55 | isolate count ([2]; MIC: ≥32 mg/L): 3 | isolate count ([3]; MIC: 2 mg/L): 7 | isolate count ([3]; MIC: 4 mg/L): 2 | isolate count ([3]; MIC: 8 mg/L): 1 | isolate count ([4]; MIC: 2 mg/L): 55 | isolate count ([4]; MIC: 4 mg/L): 31 | isolate count ([4]; MIC: 8 mg/L): 15 | isolate count ([4]; MIC: ≤1 mg/L): 12

CC(C)(O/N=C(\C(=O)N[C@@H]1C(=O)N2C(C(=O)[O-])=C(C[n+]3ccccc3)CS[C@H]12)c1csc(N)n1)C(=O)O [ceftazidime]
isolate count ([1]; MIC: 2 mg/L): 2 | isolate count ([1]; MIC: 4 mg/L): 4 | isolate count ([1]; MIC: 8 mg/L): 31 | isolate count ([1]; MIC: 16 mg/L): 45 | isolate count ([1]; MIC: ≥32 mg/L): 40 | isolate count ([2]; MIC: 1 mg/L): 17 | isolate count ([2]; MIC: 2 mg/L): 19 | isolate count ([2]; MIC: 4 mg/L): 34 | isolate count ([2]; MIC: 8 mg/L): 48 | isolate count ([2]; MIC: 16 mg/L): 45 | isolate count ([2]; MIC: ≤0.5 mg/L): 6 | isolate count ([2]; MIC: ≥32 mg/L): 24 | isolate count ([3]; MIC: 16 mg/L): 6 | isolate count ([3]; MIC: ≥32 mg/L): 4 | isolate count ([4]; MIC: 4 mg/L): 2 | isolate count ([4]; MIC: 8 mg/L): 5 | isolate count ([4]; MIC: 16 mg/L): 38 | isolate count ([4]; MIC: ≥32 mg/L): 68

C[C@@H](O)[C@H]1C(=O)N2C(C(=O)O)=C(SCCNC=N)C[C@H]12 [imipenem]
isolate count ([1]; MIC: 1 mg/L): 4 | isolate count ([1]; MIC: 2 mg/L): 1 | isolate count ([1]; MIC: 4 mg/L): 1 | isolate count ([1]; MIC: ≤0.5 mg/L): 115 | isolate count ([1]; MIC: ≥16 mg/L): 1 | isolate count ([2]; MIC: 1 mg/L): 3 | isolate count ([2]; MIC: ≤0.5 mg/L): 190 | isolate count ([3]; MIC: ≤0.5 mg/L): 10 | isolate count ([4]; MIC: 1 mg/L): 7 | isolate count ([4]; MIC: 2 mg/L): 2 | isolate count ([4]; MIC: ≤0.5 mg/L): 104

CN(C)c1cc(NC(=O)CNC(C)(C)C)c(O)c2c1C[C@H]1C[C@H]3[C@H](N(C)C)C(O)=C(C(N)=O)C(=O)[C@@]3(O)C(O)=C1C2=O [tigecycline]
isolate count ([1]; MIC: 0.5 mg/L): 55 | isolate count ([1]; MIC: 1 mg/L): 29 | isolate count ([1]; MIC: 2 mg/L): 9 | isolate count ([1]; MIC: ≤0.25 mg/L): 25 | isolate count ([1]; MIC: ≥4 mg/L): 4 | isolate count ([2]; MIC: 0.5 mg/L): 8 | isolate count ([2]; MIC: ≤0.25 mg/L): 185 | isolate count ([3]; MIC: 0.5 mg/L): 4 | isolate count ([3]; MIC: ≤0.25 mg/L): 6 | isolate count ([4]; MIC: 0.5 mg/L): 74 | isolate count ([4]; MIC: 1 mg/L): 6 | isolate count ([4]; MIC: 2 mg/L): 11 | isolate count ([4]; MIC: ≤0.25 mg/L): 21 | isolate count ([4]; MIC: ≥4 mg/L): 1

CNC(C)C1CCC(N)C(OC2C(N)CC(N)C(OC3OCC(C)(O)C(NC)C3O)C2O)O1 (configuration not stated) [gentamicin]
isolate count ([1]; MIC: 2 mg/L): 1 | isolate count ([1]; MIC: 4 mg/L): 5 | isolate count ([1]; MIC: ≤1 mg/L): 75 | isolate count ([1]; MIC: ≥8 mg/L): 41 | isolate count ([2]; MIC: 2 mg/L): 6 | isolate count ([2]; MIC: 4 mg/L): 1 | isolate count ([2]; MIC: ≤1 mg/L): 132 | isolate count ([2]; MIC: ≥8 mg/L): 54 | isolate count ([3]; MIC: ≥8 mg/L): 10 | isolate count ([4]; MIC: 4 mg/L): 2 | isolate count ([4]; MIC: ≤1 mg/L): 11 | isolate count ([4]; MIC: ≥8 mg/L): 100

C[C@@H](O)[C@H]1C(=O)N2C(C(=O)O)=C(S[C@@H]3CN[C@H](C(=O)Nc4cccc(C(=O)O)c4)C3)[C@H](C)[C@H]12 [ertapenem]
isolate count ([1]; MIC: 0.12 mg/L): 16 | isolate count ([1]; MIC: 0.25 mg/L): 5 | isolate count ([1]; MIC: 0.5 mg/L): 6 | isolate count ([1]; MIC: ≤0.06 mg/L): 92 | isolate count ([1]; MIC: ≥1 mg/L): 3 | isolate count ([2]; MIC: 0.12 mg/L): 6 | isolate count ([2]; MIC: 0.25 mg/L): 1 | isolate count ([2]; MIC: 0.5 mg/L): 2 | isolate count ([2]; MIC: ≤0.06 mg/L): 183 | isolate count ([2]; MIC: ≥1 mg/L): 1 | isolate count ([3]; MIC: 0.12 mg/L): 2 | isolate count ([3]; MIC: 0.5 mg/L): 1 | isolate count ([3]; MIC: ≤0.06 mg/L): 7 | isolate count ([4]; MIC: 0.12 mg/L): 15 | isolate count ([4]; MIC: 0.25 mg/L): 14 | isolate count ([4]; MIC: 0.5 mg/L): 7 | isolate count ([4]; MIC: ≤0.06 mg/L): 72 | isolate count ([4]; MIC: ≥1 mg/L): 5
